We go through 18 molecules from patent publication US11618753B2 (priority 2018, dated 2023).

The structures appear in SMILES notation.

The assay concerns MLKL phosphorylation, HT29-L23 human colorectal adenocarcinoma cells. Nature of the assay: cells. Conditions: read-out: pMLKL HCS Cell Assay (IC50, uM).
Regarding `Nc1ncnn2c(-c3ccc(F)c(C(=O)N[C@@H]4CN(C(=O)C5CC5(F)F)C[C@@H]4F)c3F)cc(C(F)(F)F)c12` (stereo partly drawn) [Example 730, 3-[4-amino-5-(trifluoromethyl)pyrrolo[2,1-f][1,2,4]triazin-7-yl]-N-[(3R,4S)-1-(2,2-difluorocyclopropanecarbonyl)-4-fluoropyrrolidin-3-yl]-2,6-difluorobenzamide], the IC50 (as a rule, the concentration at which inhibition is half-maximal) was 0.384 µM.
To `Cc1nc(C(=O)N2C[C@H](F)[C@H](NC(=O)c3cc(-c4cc(C(F)(F)F)c5c(N)ncnn45)c(F)cc3C)C2)cs1` [Example 812, 5-[4-amino-5-(trifluoromethyl)pyrrolo[2,1-f][1,2,4]triazin-7-yl]-4-fluoro-N-[(3R,4S)-4-fluoro-1-(2-methyl-1,3-thiazole-4-carbonyl)pyrrolidin-3-yl]-2-methylbenzamide] belongs 0.027 µM; to `CCCNC(=O)c1cc(-c2cnc(OC)c(C(=O)NCC[C@H](O)c3ccc(Cl)cc3)c2)n2ncnc(N)c12` [Example 475, 5-[4-amino-5-(propylcarbamoyl)pyrrolo[2,1 f][1,2,4]triazin-7-yl]-N-[(3S)-3-(4-chlorophenyl)-3-hydroxypropyl]-2-methoxypyrine-3-carboxamide], 0.047 µM.
As to `CCc1ccc(-c2cc(C(F)(F)F)c3c(N)ncnn23)cc1C(=O)N[C@@H]1CN(C(=O)CC(F)(F)F)C[C@@H]1F` [Example 981, 5-[4-amino-5-(trifluoromethyl)pyrrolo[2,1-f][1,2,4]triazin-7-yl]-2-ethyl-N-[(3R,4S)-4-fluoro-1-(3,3,3-trifluoropropanoyl)pyrrolidin-3-yl]benzamide], the IC50 amounted to 0.024 µM.
To `COc1ncc(-c2cc(CNS(C)(=O)=O)c3c(N)ncnn23)cc1C(=O)N[C@@H]1CN(C(=O)C2CC(F)(F)C2)C[C@@H]1F` [Example 494, 5-[4-amino-5-(methanesulfonamidomethyl)pyrrolo[2,1-f][1,2,4]triazin-7-yl]-N-[(3R,4S)-1-(3,3-difluorocyclobutanecarbonyl)-4-fluoropyrrolidin-3-yl]-2-methoxypyridine-3-carboxamide] belongs 0.139 µM; to `Nc1ncnn2c(-c3cc(C(=O)N[C@@H]4CN(C(=O)C5(O)CCC5)C[C@@H]4F)c(Cl)cc3F)cc(C(F)(F)F)c12` [Example 395, 5-[4-amino-5-(trifluoromethyl)pyrrolo[2,1-f][1,2,4]triazin-7-yl]-2-chloro-4-fluoro-N-[(3R,4S)-4-fluoro-1-(1-hydroxycyclobutane-carbonyl)pyrrolidin-3-yl] benzamide], 0.012 µM; to `COc1ncc(-c2cc(C(F)(F)F)c3c(N)ncnn23)cc1C(=O)N[C@@H]1CN(C(C)c2ccccc2)C[C@@H]1F` (single isomer, unassigned) [Example 432], 0.003 µM.
With `CNc1ccc(-c2cc(C(F)(F)F)c3c(N)ncnn23)cc1C(=O)N[C@@H]1CN(C(=O)CC(O)(C(F)(F)F)C(F)(F)F)C[C@@H]1F` [Example 1137, 5-[4-amino-5-(trifluoromethyl)pyrrolo[2,1-f][1,2,4]triazin-7-yl]-N-[(3R,4S)-4-fluoro-1-[4,4,4-trifluoro-3-hydroxy-3-(trifluoromethyl)butanoyl]pyrrolidin-3-yl]-2-(methylamino)benzamide], the half-maximal inhibitory concentration (IC50) is 0.02 µM.
To `Cc1ccc(-c2cc(CN3CCC(F)(F)CC3)c3c(N)ncnn23)cc1C(=O)N[C@@H]1CN(C(=O)c2ccccc2F)C[C@@H]1F` [Example 1646, 5-{4-amino-5-[(4,4-difluoropiperidin-1-yl)methyl]pyrrolo[2,1-f][1,2,4]triazin-7-yl}-N-[(3R,4S)-4-fluoro-1-(2-fluorobenzoyl)pyrrolidin-3-yl]-2-methylbenzamide] belongs 0.00034 µM; to `COc1ncc(-c2cc(C(F)(F)F)c3c(N)ncnn23)cc1C(=O)N[C@@H]1CCC[C@@H](c2ccccc2)C1` (racemic) [Example 1692, 5-(4-amino-5-(trifluoromethyl)pyrrolo[2,1-f][1,2,4]triazin-7-yl)-2-methoxy-N-((1RS,3RS)-3-phenylcyclohexyl)nicotinamide], 0.059 µM; to `Nc1ncnn2c(-c3ccc(F)c(C(=O)N[C@@H]4CN(C(=O)C5CC(F)C5)C[C@@H]4F)c3)cc(C(F)(F)F)c12` (stereo partly drawn) [Example 252, 5-[4-amino-5-(trifluoromethyl)pyrrolo[2,1-f][1,2,4]triazin-7-yl]-2-fluoro-N-[(3R,4S)-4-fluoro-1-(3-fluorocyclobutanecarbonyl)pyrrolidin-3-yl]benzamide], 0.038 µM.
As for `CC(CC(=O)N1C[C@H](F)[C@H](NC(=O)c2cc(-c3cc(C(F)(F)F)c4c(N)ncnn34)c(F)cc2F)C1)C(F)(F)F` (stereo partly drawn) [Example 785, 5-[4-amino-5-(trifluoromethyl)pyrrolo[2,1-f][1,2,4]triazin-7-yl]-2,4-difluoro-N-[(3R,4S)-4-fluoro-1-(4,4,4-trifluoro-3-methylbutanoyl)pyrrolidin-3-yl]benzamide], the IC50 was 0.0062 µM.
In the case of `CC(C)(F)C(=O)N1C[C@H](F)[C@H](NC(=O)c2cc(-c3cc(C(F)(F)F)c4c(N)ncnn34)ccc2OC(F)F)C1` [Example 1092, 5-[4-amino-5-(trifluoromethyl)pyrrolo[2,1-f][1,2,4]triazin-7-yl]-2-(difluoromethoxy)-N-[(3R,4S)-4-fluoro-1-(2-fluoro-2-methylpropanoyl)pyrrolidin-3-yl]benzamide], the IC50 came to 0.035 µM.
To `Nc1ncnn2c(-c3cc(F)c(Cl)c(C(=O)N[C@@H]4CN(C(=O)C5CC5(F)F)C[C@@H]4F)c3)cc(C(F)(F)F)c12` (stereo partly drawn) [Example 631, 5-[4-amino-5-(trifluoromethyl)pyrrolo[2,1-f][1,2,4]triazin-7-yl]-2-chloro-N-[(3R,4S)-1-(2,2-difluorocyclopropanecarbonyl)-4-fluoropyrrolidin-3-yl]-3-fluorobenzamide] belongs 0.0066 µM; to `Cc1ncc(-c2cc(C(F)(F)F)c3c(N)ncnn23)cc1C(=O)Nc1cn(Cc2ccc(F)cc2)cn1` [Example 1802, 5-(4-amino-5-(trifluoromethyl)pyrrolo[2,1-f][1,2,4]triazin-7-yl)-N-(1-(4-fluorobenzyl)-1H-imidazol-4-yl)-2-methylnicotinamide], 0.00045 µM.
The same measure for `Nc1ncnn2c(-c3cc(C(=O)N[C@@H]4CN(C(=O)C5CC(F)C5)C[C@@H]4F)c(F)cc3F)cc(C(F)(F)F)c12` (stereo partly drawn) [Example 778, 5-[4-amino-5-(trifluoromethyl)pyrrolo[2,1-f][1,2,4]triazin-7-yl]-2,4-difluoro-N-[(3R,4S)-4-fluoro-1-(3-fluorocyclobutanecarbonyl)pyrrolidin-3-yl]benzamide]: 0.026 µM.
The same measure for `COc1ncc(-c2cc(C(F)(F)F)c3c(NC(C)=O)ncnn23)cc1C(=O)N[C@@H]1CN(C(=O)CC(O)(C(F)(F)F)C(F)(F)F)C[C@@H]1F` [Example 1340, 5-[4-acetamido-5-(trifluoromethyl)pyrrolo[2,1-f][1,2,4]triazin-7-yl]-N-[(3R,4S)-4-fluoro-1-[4,4,4-trifluoro-3-hydroxy-3-(trifluoromethyl)butanoyl]pyrrolidin-3-yl]-2-methoxypyridine-3-carboxamide]: 0.0033 µM; for `COc1ncc(-c2cc(C(F)(F)F)c3c(N)ncnn23)cc1C(=O)N[C@@H]1CN(C(=O)C2(C)CC2(F)F)C[C@@H]1F` (stereo partly drawn) [Example 304, 5-[4-amino-5-(trifluoromethyl)pyrrolo[2,1-f][1,2,4]triazin-7-yl]-N-[(3R,4S)-1-(2,2-difluoro-1-methylcyclopropanecarbonyl)-4-fluoropyrrolidin-3-yl]-2-methoxypyridine-3-carboxamide]: 0.03 µM.
